# The supplement of paper PMC9174493
# This is one part of the list. Single values of this set are uncertain. Values with irradiation are relative to irradiated vehicle.
# What was measured:
# A549-Dual [1] = experiment: NF-kB reporter (SEAP) activity, viability-corrected, relative to vehicle (fold change vs vehicle); higher = more activation of STING-IRF / NF-kB immune response reporter; conditions: 10 µM
# A549-Dual [2] = experiment: ISRE reporter (Lucia luciferase) activity, viability-corrected, relative to vehicle (fold change vs vehicle); higher = more activation of STING-IRF / NF-kB immune response reporter; conditions: 10 µM
# 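Throughout, for NF-kB reporter (SEAP) activity, viability-corrected, relative to vehicle: viability correction based on the alamar blue assay, with concentrations leaving 10% survival or less dropped.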
Compound,NF-kB reporter (A549-Dual [1]; irradiation: 8 Gy/4 fr),NF-kB reporter (A549-Dual [1]; irradiation: none),ISRE reporter (A549-Dual [2]; irradiation: 8 Gy/4 fr),ISRE reporter (A549-Dual [2]; irradiation: none)
CC12CCC(=O)C=C1CCC1C2C(=O)CC2(C)C1CCC2(O)C(=O)CO (configuration not stated) [Cortisone],0.748,0.553,0.73,0.505
CC1(C)CC(=O)CC(C)(C)N1 [TriacetonaMine],1.28,0.914,1.38,0.735
CNCc1cc(-c2ccccc2F)n(S(=O)(=O)c2cccnc2)c1.O=C(O)/C=C/C(=O)O [Vonoprazan Fumarate (TAK-438)],0.987,1.25,1.16,1.12
CCC1OC(=O)C(C)C(OC2CC(C)(OC)C(O)C(C)O2)C(C)C(OC2OC(C)CC(N(C)C)C2O)C(C)(O)CC(C)C(=O)C(C)C2OC(=O)OC12C (configuration not stated) [Erythromycin Cyclocarbonate],0.716,0.95,0.798,1.12
CC(C)c1cc2c(cc1S(=O)(=O)[O-])C1(C)CCCC(C)(C(=O)O)C1CC2.[Na+] (configuration not stated) [Ecabet sodium],1.71,0.855,1.73,0.766
CC(O)C(=O)Nc1c(I)c(C(=O)NC(CO)CO)c(I)c(C(=O)NC(CO)CO)c1I (configuration not stated) [Iopamidol],0.825,0.729,0.85,0.699
CN/C(=C/[N+](=O)[O-])NCCSCc1csc(CN(C)C)n1 [Nizatidine],0.817,0.937,0.837,0.718
CCOc1nc2cccc(C(=O)O)c2n1Cc1ccc(-c2ccccc2-c2nn[nH]n2)cc1 [Candesartan],0.704,0.824,0.666,0.638
COc1ccc(-c2nc3cc(C4=NNC(=O)CC4C)ccc3[nH]2)cc1 (configuration not stated) [Pimobendan],2.72,7.1,2.35,8.62
CO/N=C1\CC2(CC3CC(C/C=C(\C)CC(C)/C=C/C=C4\COC5C(O)C(C)=CC(C(=O)O3)C45O)O2)OC(/C(C)=C/C(C)C)C1C (configuration not stated) [Moxidectin],1.13,1.7,1.02,3.36
CCN1CCCC1CNC(=O)c1cc(S(N)(=O)=O)ccc1OC (configuration not stated) [Sulpiride],0.835,1.28,0.776,0.74
Nc1c(Br)cc(Br)cc1CNC1CCC(O)CC1 (configuration not stated) [Ambroxol],0.877,0.614,0.963,0.509
CCc1c(C)[nH]c2c1C(=O)C(CN1CCOCC1)CC2.Cl (configuration not stated) [Molindone hydrochloride],1.04,1.52,0.673,0.729
CC(C)(Oc1ccc(C(=O)c2ccc(Cl)cc2)cc1)C(=O)O [Fenofibric acid],0.659,0.943,0.693,0.84
CCC(=O)c1c(O)cc(O)cc1O [Flopropione],0.541,1.01,0.369,0.402
COC(=O)C1=COC(OC2OC(CO)C(O)C(O)C2O)C2C1CC(O)C2C (configuration not stated) [Loganin],0.752,0.599,0.66,0.49
CCOC(=O)C1=C(COCCN)NC(C)=C(C(=O)OC)C1c1ccccc1Cl (configuration not stated) [Levamlodipine],0.768,0.929,0.959,1.58
CNc1ncc(-c2ccc3c(=O)c(C(=O)O)cn(C4CC4)c3c2C)cc1C [Ozenoxacin],1.09,1.39,0.881,0.982
CC(C)=CCCC(C)(OC1OC(COC2OC(CO)C(O)C(O)C2O)C(O)C(O)C1O)C1CCC2(C)C1C(O)CC1C3(C)CCC(OC4OC(CO)C(O)C(O)C4OC4OC(CO)C(O)C(O)C4O)C(C)(C)C3CCC12C (configuration not stated) [Ginsenoside Rb1],0.649,0.588,0.629,0.53
CC(C)(c1ccc(O)cc1)c1ccc(O)cc1 [Bisphenol A],0.709,0.636,0.871,0.806
CN1CCOC(c2ccccc2)c2ccccc2C1.Cl (configuration not stated) [Nefopam HCl],0.749,2.02,0.64,0.975
COC(=O)CCc1ccc(OCC(O)CNC(C)C)cc1 (configuration not stated) [Esmolol],0.883,1.03,0.736,0.669
Cl.NCCC[C@H](N)C(=O)O [L-Ornithine],0.893,0.876,0.138,0.323
COC1C(O)CC(=O)OC(C)C/C=C/C=C/C(O)C(C)CC(CC=O)C1OC1OC(C)C(OC2CC(C)(O)C(OC(=O)CC(C)C)C(C)O2)C(N(C)C)C1O (configuration not stated) [Kitasamycin],0.779,1.18,0.621,0.792
Cl.c1ccc2c(CC3=NCCN3)cccc2c1 [Naphazoline HCl],1.18,1.07,0.985,1.07
O=C(Nc1cc(Cl)cc(Cl)c1O)c1c(O)c(Cl)cc(Cl)c1Cl [Oxyclozanide],2.05,3.23,0.395,1.12
CC1(C)SC2C(NC(=O)C(N)c3ccc(O)cc3)C(=O)N2C1C(=O)[O-].[Na+] (configuration not stated) [Amoxicillin Sodium],0.909,0.93,0.953,0.801

Compound,NF-kB reporter (A549-Dual [1]; irradiation: 8 Gy/4 fr),NF-kB reporter (A549-Dual [1]; irradiation: none),ISRE reporter (A549-Dual [2]; irradiation: 8 Gy/4 fr),ISRE reporter (A549-Dual [2]; irradiation: none)
CCCC1CC(C(=O)NC(C(C)Cl)C2OC(SC)C(OP(=O)(O)O)C(O)C2O)N(C)C1 (configuration not stated) [Clindamycin Phosphate],0.788,0.998,0.863,1.02
CCCCCCCCCCCCCCCC(=O)OC/C=C(C)/C=C/C=C(C)/C=C/C1=C(C)CCCC1(C)C [Retinyl (Vitamin A) Palmitate],0.776,0.559,0.0961,0.144
OCC(O)C(O)C(OC1OC(CO)C(O)C(O)C1O)C(O)CO (configuration not stated) [Lactitol],0.744,0.926,0.705,0.668
CCCNC(=O)NS(=O)(=O)c1ccc(Cl)cc1 [Chlorpropamide],0.805,0.792,0.721,0.674
O=C[C@H](O)[C@@H](O)[C@H](O)[C@H](O)C(=O)O [D-Glucuronic acid],1.66,0.738,1.42,0.552
CC(C)(O)C1CCC(C)(C2C(O)CC3(C)C4CC(OC5OC(CO)C(O)C(O)C5O)C5C(C)(C)C(OC6OCC(O)C(O)C6O)CCC56CC46CCC23C)O1 (configuration not stated) [Astragaloside IV],0.781,0.668,0.674,0.497
O=C([O-])CN(CCN(CC(=O)[O-])CC(=O)[O-])CCN(CC(=O)[O-])CC(=O)[O-].[Ca+2].[Na+].[Na+].[Na+] [pentetate calcium trisodium hydrate],0.6,0.604,0.65,0.765
CC12C=CC(=O)C=C1CCC1C2C(O)CC2(C)C1CCC2(O)C(=O)CO (configuration not stated) [Prednisolone],1.11,0.73,0.105,0.149
CC1=Nc2ccc(Cl)cc2S(=O)(=O)N1 [Diazoxide],0.846,0.892,0.688,0.471
CCCC(=O)OCOC(=O)C1=C(C)NC(C)=C(C(=O)OC)C1c1cccc(Cl)c1Cl (configuration not stated) [Clevidipine Butyrate],0.709,0.943,0.776,0.857
CNC1CCCN(c2c(F)cc3c(=O)c(C(=O)O)cn(C4CC4)c3c2OC)C1 (configuration not stated) [Balofloxacin],0.871,0.944,0.678,0.952
CN1CC(=O)N2C(Cc3c([nH]c4ccccc34)C2c2ccc3c(c2)OCO3)C1=O (configuration not stated) [Tadalafil],0.72,1.23,0.941,1.54
O=c1oc2ccccc2c(O)c1Cc1c(O)c2ccccc2oc1=O [Dicoumarol],1.48,1.05,1.4,1.01
C=C(CC)C(=O)c1ccc(OCC(=O)O)c(Cl)c1Cl [Ethacrynic Acid],0.853,0.903,1.06,1.32
CO/N=C(\C(=O)NC1C(=O)N2C(C(=O)[O-])=C(COC(N)=O)CSC12)c1ccco1.[Na+] (configuration not stated) [Cefuroxime sodium],0.876,0.971,0.901,0.794
COC(=O)C(c1ccccc1Cl)N1CCc2sccc2C1.O=S(=O)(O)O (configuration not stated) [Clopidogrel],0.756,1.06,0.837,0.82
CCc1cc(C(N)=S)ccn1 [Ethionamide],0.646,0.922,0.531,0.611
CC(=O)OCC(=O)C12OC(C)(C)OC1CC1C3CC(F)C4=CC(=O)C=CC4(C)C3(F)C(O)CC12C (configuration not stated) [Fluocinonide],0.314,0.926,0.0495,0.3
COc1ccc(C2OCC3C(c4ccc(OC5OC(CO)C(O)C(O)C5O)c(OC)c4)OCC23)cc1OC (configuration not stated) [Forsythin],0.734,1.15,0.711,0.845
Cc1cccc(Nc2ccccc2C(=O)O)c1C [Mefenamic Acid],0.892,1.13,0.702,0.694
CCCCC(=O)OC1CCC2C3CCc4cc(O)ccc4C3CCC12C (configuration not stated) [Estradiol valerate],0.881,1.08,0.6,1.02
CCOc1cc(N)c(Cl)cc1C(=O)NCC1CN(Cc2ccc(F)cc2)CCO1 (configuration not stated) [Mosapride],0.748,0.632,0.947,0.966
CC1(C)OCC(COC(=O)CCc2ccc(OCC(O)CNCCNC(=O)N3CCOCC3)cc2)O1.Cl (configuration not stated) [Landiolol hydrochloride],1.44,0.936,0.879,0.886
O=C(O)CCNC(=O)c1ccccc1 [Betamipron],0.843,1.19,0.718,0.825
Cc1c(OCC(F)(F)F)ccnc1CS(=O)c1nc2ccccc2[nH]1 (configuration not stated) [Dexlansoprazole],0.53,0.94,0.236,0.374
CC(=O)OC1CC2(C)C(CC(O)C3C4(C)CCC(O)C(C)C4CCC32C)/C1=C(\CCC=C(C)C)C(=O)O (configuration not stated) [Fusidine],0.696,0.781,0.854,0.877
